{
  "source": "patent US20250170203A1",
  "about": "“Methods of Treating Alzheimer's Disease” (Athira Pharma, Inc., priority 2021, published 2025)",
  "key": {"[1]": {"system": "subjects with mild to moderate Alzheimer's disease", "conditions": "Example 1; 40 or 70 mg/day SC, 26 weeks"}, "AD subjects": {"system": "AD subjects", "assay": "ERP P300 latency after an 8-day treatment cycle in AD subjects", "assay_type": "in vivo, human", "conditions": "end of an 8-day treatment cycle", "description": "Event-related potential (ERP) P300 latency is a functional measure of working memory processing speed and executive function that highly correlates with cognition. […] In some embodiments, after a single dose of ATH-1017, the AD subject has improved P300 latency. In some embodiments, by the end of an 8-day treatment cycle, average ERP P300 latency across the AD treatment group improves by 73 milliseconds compared to placebo group. In some embodiments, this improvement is a statistically significant change compared to placebo group."}, "[2]": {"system": "subjects with mild to moderate AD", "assay": "Phase 2 ACT-AD study, adverse events", "assay_type": "in vivo, human", "method": "An independent Data Safety Monitoring Board conducts periodic review and assessments of unblinded safety data (AEs, labs, ECG, etc.) throughout the study to ensure the safety of study subjects.\nSubjects are analyzed based on actual treatment received."}, "[3]": {"system": "subjects with mild to moderate AD", "assay": "Phase 2 ACT-AD study, ERP P300 latency", "conditions": "for P300 Latency change from baseline (CFB): ATH-1017 monotherapy (no concurrent AChEI)"}, "[4]": {"assay": "Conversion of prodrug ATH-1017 in plasma after SC injection", "assay_type": "in vivo", "conditions": "in the plasma after SC injection", "description": "ATH-1017 is an experimental Alzheimer's disease (AD) treatment, formulated as a sterile solution for subcutaneous (SC) injection. […] ATH-1017 was developed as a water-soluble prodrug of ATH-1001 to allow SC dosing in aqueous vehicles. The active drug ATH-1001 acts as an agonist of the hepatic growth factor (HGF) receptor and its tyrosine kinase, MET. Central nervous system (CNS) MET expression is crucial in maintaining the healthy adult brain (Hawrylycz, 2015), and is reduced in AD, particularly in the hippocampus (Hamasaki, 2014). The HGF/MET system presents a therapeutic target to treat neurodegeneration and restore cognitive function in AD."}, "[5]": {"system": "subjects with mild to moderate AD", "assay": "Phase 2 ACT-AD study, ADCS-ADL23", "assay_type": "in vivo, human", "conditions": "mITT", "description": "The ADCS-ADL23 (Galasko, 1997) is a 23-item assessment of functional impairment in terms of activities of daily living administered to the support person/caregiver. It comprises 23 questions about the subject's involvement and level of performance across items representing daily living. The questions range from basic to instrumental activities of daily living. Each item is rated from the highest level of independent performance to complete loss. The total score range is from 0 to 78, with lower scores indicating greater functional impairment. ADCS-ADL23 assessments are performed pre-dose at Visit 2b (Baseline/Day 1), post-dose at Visit 5 (Week 12), and post-dose at Visit 8/ET (Week 26).\n(§1) Secondary analyses include an evaluation of the correlation of ERP P300 latency with cognition/executive memory function, and comparison of treatment and placebo for the Global Statistical Test (GST), ADAS-Cog11, ADCS-CGIC, and ADCS-ADL23."}, "[6]": {"system": "subjects with mild to moderate Alzheimer's disease", "conditions": "Example 3; open-label 70 mg/day SC, 26 weeks"}, "[7]": {"system": "subjects with mild to moderate AD", "assay": "Phase 2 ACT-AD study, ADAS-Cog11", "assay_type": "in vivo, human", "conditions": "for ADAS-Cog11 change from baseline (CFB): ATH-1017 monotherapy (no concurrent AChEI)", "description": "The ADAS-Cog11 is designed to measure cognitive symptom changes in subjects with AD (Rosen, 1984). The standard 11 items are word recall, commands, constructional praxis, naming objects and fingers, ideational praxis, orientation, word recognition, spoken language ability, comprehension of spoken language, word-finding difficulty, and remembering test instructions. The test includes 7 performance items and 4 clinician-rated items, with a total score ranging from 0 (no impairment) to 70 (severe impairment). Therefore, higher scores indicate more severe cognitive impairment.\nADAS-Cog11 assessments are performed pre-dose at Visit 2b (Baseline/Day 1), and post-dose at approximately 1 hour (±30 minutes) at Visit 3 (Week 2), Visit 4 (Week 6), Visit 5 (Week 12), Visit 7 (Week 20), Visit 8/ET (Week 26), and Visit 9 (Safety follow-up; no dosing.\nas §1"}, "[8]": {"system": "subjects with mild to moderate AD", "assay": "Phase 2 ACT-AD study, ADCS-CGIC", "assay_type": "in vivo, human", "conditions": "mITT", "description": "The ADCS-CGIC consists of 3 parts: a guided baseline interview administered to the subject and caregiver/support person, a follow-up interview administered to the subject and caregiver/support person, and a clinician's rating review (Schneider, 1997). At study start, using the ADCS-CGIC baseline form as a guideline, the ADCS-CGIC rater obtains an integral clinical impression of the subject's status, can apply any formal testing at his/her discretion, and take personal notes regarding the subject's condition; these serve as a reference for future change ratings. The ADCS-CGIC is administered by an experienced clinician who remains independent of the subject's safety, cognitive and functional outcomes, and is trained and certified for this study. The ADCS-CGIC rater ideally remains the same individual for all ADCS-CGIC ratings.\nADCS-CGIC assessments are performed adjacent to ADAS-Cog11 and COWAT assessments pre-dose at Visit 2b (Baseline/Day 1), post-dose at Visit 5 (Week 12), and post-dose at Visit 8/ET (Week 26).\nas §1"}, "[9]": {"system": "healthy young subjects, healthy elderly subjects and AD subjects"}, "[10]": {"conditions": "26 weeks, monotherapy, post hoc, mITT"}},
  "note": "Like-named read-outs stand apart in the source and are kept apart here. Where a SMILES comes first, the peptide text is derived from it. [ ]: non-standard residue; d: D form. The star is where a group is joined. pY = N[C@@H](Cc1ccc(OP(=O)(O)O)cc1)C(=O)O; Hexanoyl = CCCCCC(=O)*; Ahx = NCCCCCC(=O)O",
  "data": [
    {"smiles": "CCCCCC(=O)N[C@@H](Cc1ccc(OP(=O)(O)O)cc1)C(=O)N[C@H](C(=O)NCCCCCC(N)=O)[C@@H](C)CC", "note": "[ATH-1017] (Hexanoyl-[pY]-Ile-[Ahx]-NH2)", "values": [
      {"measurement": "achievement of study endpoints", "setting": "[1]", "result": "achieves one or more of the primary, secondary, or exploratory endpoints"},
      {"measurement": "safety and tolerability", "setting": "[1]", "result": "acceptable safety and tolerability"},
      {"measurement": "improvement of average ERP P300 latency compared to placebo group", "setting": "AD subjects", "result": 73, "unit": "milliseconds"},
      {"measurement": "subjects who developed treatment related Adverse Events", "setting": "[2]; 40 mg/day ATH-1017 treated group", "result": 23, "unit": "subjects"},
      {"measurement": "subjects who developed treatment related Adverse Events", "setting": "[2]; 70 mg/day ATH-1017 treated group", "result": 24, "unit": "subjects"},
      {"measurement": "adverse events relative to AChEIs", "setting": "[2]; preliminary analysis", "result": "without the significant adverse events associated with AChEIs"},
      {"measurement": "most frequent Adverse Event", "setting": "[2]; sometimes with transient, asymptomatic increases in absolute eosinophil count", "result": "injection site reaction"},
      {"measurement": "treatment related Serious Adverse Events", "setting": "[2]; whole study", "result": "No treatment related Serious Adverse Events were observed"},
      {"measurement": "primary endpoint: statistically significant change in ERP P300 Latency versus placebo", "setting": "[3]; 26 weeks, mITT, MMRM, pooled 40 mg and 70 mg dose groups", "result": "did not meet the primary endpoint"},
      {"measurement": "change in ERP P300 compared to placebo", "setting": "[3]; [10]", "result": "−28", "unit": "milliseconds"},
      {"measurement": "P300 Latency change from baseline (CFB)", "setting": "[3]; W2, post hoc, mITT", "result": -19.1, "unit": "ms"},
      {"measurement": "P300 Latency change from baseline (CFB)", "setting": "[3]; W6, post hoc, mITT", "result": -10.8, "unit": "ms"},
      {"measurement": "P300 Latency change from baseline (CFB)", "setting": "[3]; W12, post hoc, mITT", "result": -10.1, "unit": "ms"},
      {"measurement": "P300 Latency change from baseline (CFB)", "setting": "[3]; W16, post hoc, mITT", "result": -17.6, "unit": "ms"},
      {"measurement": "P300 Latency change from baseline (CFB)", "setting": "[3]; W20, post hoc, mITT", "result": -5.8, "unit": "ms"},
      {"measurement": "P300 Latency change from baseline (CFB)", "setting": "[3]; W26, post hoc, mITT", "result": -10.7, "unit": "ms"},
      {"measurement": "performance of monotherapy relative to AChEIs", "setting": "[3]; preliminary analysis", "result": "performed similarly as monotherapy with AChEIs"},
      {"measurement": "effectiveness as monotherapy versus combination with AChEI therapy", "setting": "[3]; preliminary results, post hoc analysis, mITT", "result": "more effective as a monotherapy than in combination with AChEI therapy"},
      {"measurement": "conversion of prodrug to active drug", "setting": "[4]", "result": "rapidly converted to the active drug ATH-1001"},
      {"measurement": "secondary endpoint ADCS-ADL23, treated subjects compared with placebo", "setting": "[5]", "result": "not significant"},
      {"measurement": "achievement of study endpoints", "setting": "[6]", "result": "achieves one or more of the primary, secondary, or exploratory endpoints"},
      {"measurement": "safety and tolerability", "setting": "[6]", "result": "acceptable safety and tolerability"},
      {"measurement": "ADAS-Cog11 compared with placebo", "setting": "[7]; [10]", "result": "−3.3", "unit": "points"},
      {"measurement": "ADAS-Cog11 change from baseline (CFB)", "setting": "[7]; W2, post hoc, mITT", "result": "−1.4"},
      {"measurement": "ADAS-Cog11 change from baseline (CFB)", "setting": "[7]; W6, post hoc, mITT", "result": "−2.1"},
      {"measurement": "ADAS-Cog11 change from baseline (CFB)", "setting": "[7]; W12, post hoc, mITT", "result": "−1.5"},
      {"measurement": "ADAS-Cog11 change from baseline (CFB)", "setting": "[7]; W20, post hoc, mITT", "result": "−1"},
      {"measurement": "ADAS-Cog11 change from baseline (CFB)", "setting": "[7]; W26, post hoc, mITT", "result": 0.9},
      {"measurement": "secondary endpoint ADAS-Cog11, treated subjects compared with placebo", "setting": "[7]; mITT", "result": "not significant"},
      {"measurement": "effect on ADAS-Cog11 scores, in words", "setting": "[7]; patients not receiving concurrent AChEI therapy", "result": "qualitatively stabilized or improved"},
      {"measurement": "secondary endpoint ADCS-CGIC, treated subjects compared with placebo", "setting": "[8]", "result": "not significant"},
      {"measurement": "injection site reactions (pain, pruritus, and/or erythema), severity", "setting": "[9]; human clinical studies, SC", "result": "mild in nature"},
      {"measurement": "safety and tolerability", "setting": "[9]; single SC 2, 6, 20, 40, 60, 90 mg healthy young, 20, 40, 60, 80 mg SC OD 9 days healthy elderly, 40 mg SC OD 9 days AD subjects", "result": "safe and well tolerated"}
    ]}
  ]
}
